Article doi:10.1101/2020.01.04.893156 (bioRxiv, 2020)

Target: T1, phosphorylated Ric-8A(1-491) (rat, UniProt Q80ZG1 1-491, phosphoserine at 435, phosphothreonine at 440 (casein kinase II))
T1 sequence (looked up): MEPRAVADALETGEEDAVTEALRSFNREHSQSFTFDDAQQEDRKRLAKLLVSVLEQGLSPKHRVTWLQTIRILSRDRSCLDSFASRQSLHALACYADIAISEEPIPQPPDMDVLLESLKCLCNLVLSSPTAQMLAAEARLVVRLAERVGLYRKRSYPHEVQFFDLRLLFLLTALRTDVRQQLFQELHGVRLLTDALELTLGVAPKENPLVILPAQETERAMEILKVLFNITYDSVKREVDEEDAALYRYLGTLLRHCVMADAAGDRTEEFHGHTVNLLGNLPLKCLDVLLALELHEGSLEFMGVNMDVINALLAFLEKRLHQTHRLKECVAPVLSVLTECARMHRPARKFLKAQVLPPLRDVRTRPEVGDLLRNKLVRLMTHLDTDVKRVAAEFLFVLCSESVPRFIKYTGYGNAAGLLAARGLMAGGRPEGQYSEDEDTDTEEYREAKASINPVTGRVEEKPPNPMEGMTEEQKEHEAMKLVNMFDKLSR
Test: cryo-EM structure

B1: Δ31NGαi1 (N-terminal 31-residue truncation mutant of rat Gαi1) (domain or fragment)
chain: not shown
binding result: binds
